# Data reported in the supplement of paper PMC8728848.
# The other results are listed elsewhere or left out.
# B1: Gal 8 (Mus musculus), Q9JL15 (protein)
# chain: MGGSHHHHHHGMASMLSLNNLQNIIYNPIIPYVGTITEQLKPGSLIVIRGHVPKDSERFQVDFQLGNSLKPRADVAFHFNPHFKRSSCIVCNTLTQEKWGWEEITYDMPFRKEKSFEIVFMVLKNKFQVAVNGRHVLLYAHRISPEQIDTVGIYGKVNIHSIGFRFSSASALPHTLGDLQSMETSALGLTQINRENIQKPGKLQLSLPFEARLNASMGPGRTVVIKGEVNTNARSFNVDLVAGKTRDIALHLNPHLNVKAFVRNSFLQDAWGEEERNITCFPFSSGMYFEMIIYCDVREFKVAINGVHSLEYKHRFKDLSSIDTLSVDGDIRLLDVRSW
# Legend:
# Assay in all cases: glycan array binding signal (z-score within array); higher = stronger binding
# Settings in all cases: glycan notation: IUPAC condensed, linker removed; mutation: R82H, R255H
# [1] = target: Man(a1-3)[Man(a1-6)]Man(a1-6)[Man(a1-2)Man(a1-3)]Man(b1-4)GlcNAc(b1-4)GlcNAc
# Procedure, shortened: (§1)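 The binding signal is a Z-score computed within each array and averaged over linkers. Arrays of the same protein sequence at different concentrations or buffers were also averaged together. Data originate from 3228 arrays in the Consortium for Functional Glycomics database, kept only where the protein sequence was available.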
# [2] = target: Man(a1-3)[Man(a1-6)]Man(a1-6)[Man(a1-3)]Man
# Procedure, shortened: as §1
# [3] = target: Man(a1-3)[Man(a1-6)]Man(a1-6)[Man(a1-3)]Man(b1-4)GlcNAc(b1-4)GlcNAc
# Procedure, shortened: as §1
# [4] = target: Man(a1-3)[Man(a1-6)]Man(b1-4)GlcNAc(b1-4)GlcNAc
# Procedure, shortened: as §1
# [5] = target: Man(a1-3)[Man(a1-6)]Man(b1-4)GlcNAc(b1-4)[Fuc(a1-6)]GlcNAc
# Procedure, shortened: as §1
# Man(a1-6)Man = target: Man(a1-6)Man
# Procedure, shortened: as §1
# Man(b1-4)GlcNAc = target: Man(b1-4)GlcNAc
# Procedure, shortened: as §1
# MurNAc(b1-4)GlcNAc = target: MurNAc(b1-4)GlcNAc
# Procedure, shortened: as §1
# Neu5Ac(a2-3)Gal = target: Neu5Ac(a2-3)Gal
# Procedure, shortened: as §1
# [6] = target: Neu5Ac(a2-3)Gal(b1-3)GalNAc
# Procedure, shortened: as §1
# [7] = target: Neu5Ac(a2-3)Gal(b1-3)GalNAc(b1-3)Gal(a1-4)Gal(b1-4)Glc
# Procedure, shortened: as §1
# [8] = target: Neu5Ac(a2-3)Gal(b1-3)GalNAc(b1-4)Gal(b1-4)Glc
# Procedure, shortened: as §1
# [9] = target: Neu5Ac(a2-3)Gal(b1-3)GalNAc(b1-4)[Neu5Ac(a2-3)]Gal(b1-4)Glc
# Procedure, shortened: as §1
# [10] = target: Neu5Ac(a2-3)Gal(b1-3)GalNAc(b1-4)[Neu5Ac(a2-8)Neu5Ac(a2-3)]Gal(b1-4)Glc
# Procedure, shortened: as §1
# [11] = target: Neu5Ac(a2-3)Gal(b1-3)GalNAc6S
# Procedure, shortened: as §1
# [12] = target: Neu5Ac(a2-3)Gal(b1-3)GlcNAc
# Procedure, shortened: as §1
# [13] = target: Neu5Ac(a2-3)Gal(b1-3)GlcNAc(b1-2)Man
# Procedure, shortened: as §1
# [14] = target: Neu5Ac(a2-3)Gal(b1-3)GlcNAc(b1-2)Man(a1-3)[GlcNAc(b1-4)][Neu5Ac(a2-3)Gal(b1-3)GlcNAc(b1-2)Man(a1-6)]Man(b1-4)GlcNAc(b1-4)GlcNAc
# Procedure, shortened: as §1
# [15] = target: Neu5Ac(a2-3)Gal(b1-3)GlcNAc(b1-2)Man(a1-3)[Neu5Ac(a2-3)Gal(b1-3)GlcNAc(b1-2)Man(a1-6)]Man(b1-4)GlcNAc(b1-4)GlcNAc
# Procedure, shortened: as §1
# [16] = target: Neu5Ac(a2-3)Gal(b1-3)GlcNAc(b1-2)[Neu5Ac(a2-3)Gal(b1-3)GlcNAc(b1-4)]Man(a1-6)[Neu5Ac(a2-3)Gal(b1-3)GlcNAc(b1-2)Man(a1-3)]Man(b1-4)GlcNAc(b1-4)GlcNAc
# Procedure, shortened: as §1
# [17] = target: Neu5Ac(a2-3)Gal(b1-3)GlcNAc(b1-3)Gal(b1-3)GlcNAc
# Procedure, shortened: as §1
# [18] = target: Neu5Ac(a2-3)Gal(b1-3)GlcNAc(b1-3)Gal(b1-4)GlcNAc
# Procedure, shortened: as §1
# [19] = target: Neu5Ac(a2-3)Gal(b1-3)GlcNAc(b1-3)GalNAc
# Procedure, shortened: as §1
# [20] = target: Neu5Ac(a2-3)Gal(b1-3)GlcNAc(b1-6)GalNAc
# Procedure, shortened: as §1
# [21] = target: Neu5Ac(a2-3)Gal(b1-3)GlcNAc6S
# Procedure, shortened: as §1
# [22] = target: Neu5Ac(a2-3)Gal(b1-3)[Fuc(a1-4)]GlcNAc
# Procedure, shortened: as §1
# [23] = target: Neu5Ac(a2-3)Gal(b1-3)[Fuc(a1-4)]GlcNAc(b1-3)Gal(b1-3)[Fuc(a1-4)]GlcNAc
# Procedure, shortened: as §1
# [24] = target: Neu5Ac(a2-3)Gal(b1-3)[Fuc(a1-4)]GlcNAc(b1-3)Gal(b1-4)[Fuc(a1-3)]GlcNAc
# Procedure, shortened: as §1
# [25] = target: Neu5Ac(a2-3)Gal(b1-3)[GlcNAc(b1-6)]GalNAc
# Procedure, shortened: as §1
# [26] = target: Neu5Ac(a2-3)Gal(b1-3)[Neu5Ac(a2-6)]GalNAc
# Procedure, shortened: as §1
# [27] = target: Neu5Ac(a2-3)Gal(b1-3)[Neu5Ac(a2-6)]GlcNAc(b1-3)[Fuc(a1-3)[Gal(b1-4)]GlcNAc(b1-6)]Gal(b1-4)Glc
# Procedure, shortened: as §1
# [28] = target: Neu5Ac(a2-3)Gal(b1-3)]Neu5Ac(a2-3)Gal(b1-4)]GlcNAc
# Procedure, shortened: as §1
# Neu5Ac(a2-3)Gal(b1-4)Glc = target: Neu5Ac(a2-3)Gal(b1-4)Glc
# Procedure, shortened: as §1
# [29] = target: Neu5Ac(a2-3)Gal(b1-4)GlcNAc
# Procedure, shortened: as §1
# [30] = target: Neu5Ac(a2-3)Gal(b1-4)GlcNAc(b1-2)Man
# Procedure, shortened: as §1
# [31] = target: Neu5Ac(a2-3)Gal(b1-4)GlcNAc(b1-2)Man(a1-3)[GlcNAc(b1-4)][Neu5Ac(a2-3)Gal(b1-4)GlcNAc(b1-2)Man(a1-6)]Man(b1-4)GlcNAc(b1-4)GlcNAc
# Procedure, shortened: as §1
# [32] = target: Neu5Ac(a2-3)Gal(b1-4)GlcNAc(b1-2)Man(a1-3)[Neu5Ac(a2-3)Gal(b1-4)GlcNAc(b1-2)Man(a1-6)]Man(b1-4)GlcNAc(b1-4)GlcNAc
# Procedure, shortened: as §1
# [33] = target: Neu5Ac(a2-3)Gal(b1-4)GlcNAc(b1-2)Man(a1-3)[Neu5Ac(a2-3)Gal(b1-4)GlcNAc(b1-2)Man(a1-6)]Man(b1-4)GlcNAc(b1-4)[Fuc(a1-6)]GlcNAc
# Procedure, shortened: as §1
binder,measurement,setting,value
B1,glycan array binding signal (z-score),[1],-0.246
same,glycan array binding signal (z-score),[2],-0.238
same,glycan array binding signal (z-score),[3],-0.24
same,glycan array binding signal (z-score),[4],-0.249
same,glycan array binding signal (z-score),[5],-0.198
same,glycan array binding signal (z-score),Man(a1-6)Man,-0.128
same,glycan array binding signal (z-score),Man(b1-4)GlcNAc,-0.229
same,glycan array binding signal (z-score),MurNAc(b1-4)GlcNAc,-0.27
same,glycan array binding signal (z-score),Neu5Ac(a2-3)Gal,-0.259
same,glycan array binding signal (z-score),[6],-0.119
same,glycan array binding signal (z-score),[7],-0.228
same,glycan array binding signal (z-score),[8],-0.192
same,glycan array binding signal (z-score),[9],-0.226
same,glycan array binding signal (z-score),[10],-0.243
same,glycan array binding signal (z-score),[11],-0.211
same,glycan array binding signal (z-score),[12],-0.217
same,glycan array binding signal (z-score),[13],-0.251
same,glycan array binding signal (z-score),[14],-0.236
same,glycan array binding signal (z-score),[15],0.022
same,glycan array binding signal (z-score),[16],-0.206
same,glycan array binding signal (z-score),[17],-0.249
same,glycan array binding signal (z-score),[18],-0.256
same,glycan array binding signal (z-score),[19],-0.205
same,glycan array binding signal (z-score),[20],-0.225
same,glycan array binding signal (z-score),[21],-0.181
same,glycan array binding signal (z-score),[22],-0.277
same,glycan array binding signal (z-score),[23],-0.066
same,glycan array binding signal (z-score),[24],-0.217
same,glycan array binding signal (z-score),[25],0.39
same,glycan array binding signal (z-score),[26],-0.233
same,glycan array binding signal (z-score),[27],0.129
same,glycan array binding signal (z-score),[28],-0.269
same,glycan array binding signal (z-score),Neu5Ac(a2-3)Gal(b1-4)Glc,0.157
same,glycan array binding signal (z-score),[29],-0.29
same,glycan array binding signal (z-score),[30],1.22
same,glycan array binding signal (z-score),[31],-0.277
same,glycan array binding signal (z-score),[32],-0.27
same,glycan array binding signal (z-score),[33],-0.265
